Assay results published in PubChem BioAssay AID1460 (National Center for Advancing Translational Sciences (NCATS), 2008).
The whole screen tested about 270,000 compounds, of which about 5,800 (2.1%) were called active. The shares of active, inactive and inconclusive entries below differ from those in the screen. The call rests on the fitted dose curve; in most records, active means well fitted inhibition curve with a large enough effect; inconclusive means small, poorly fitted or top-dose-only effect; inactive means flat fitted curve, though single readings scatter. Potencies beside an inconclusive call are fits to weak or partial responses and may not hold up.

Biological target: Microtubule-associated protein tau (Homo sapiens) (UniProt P10636)
Chain of UniProt P10636 (P10636 whole entry, looked up): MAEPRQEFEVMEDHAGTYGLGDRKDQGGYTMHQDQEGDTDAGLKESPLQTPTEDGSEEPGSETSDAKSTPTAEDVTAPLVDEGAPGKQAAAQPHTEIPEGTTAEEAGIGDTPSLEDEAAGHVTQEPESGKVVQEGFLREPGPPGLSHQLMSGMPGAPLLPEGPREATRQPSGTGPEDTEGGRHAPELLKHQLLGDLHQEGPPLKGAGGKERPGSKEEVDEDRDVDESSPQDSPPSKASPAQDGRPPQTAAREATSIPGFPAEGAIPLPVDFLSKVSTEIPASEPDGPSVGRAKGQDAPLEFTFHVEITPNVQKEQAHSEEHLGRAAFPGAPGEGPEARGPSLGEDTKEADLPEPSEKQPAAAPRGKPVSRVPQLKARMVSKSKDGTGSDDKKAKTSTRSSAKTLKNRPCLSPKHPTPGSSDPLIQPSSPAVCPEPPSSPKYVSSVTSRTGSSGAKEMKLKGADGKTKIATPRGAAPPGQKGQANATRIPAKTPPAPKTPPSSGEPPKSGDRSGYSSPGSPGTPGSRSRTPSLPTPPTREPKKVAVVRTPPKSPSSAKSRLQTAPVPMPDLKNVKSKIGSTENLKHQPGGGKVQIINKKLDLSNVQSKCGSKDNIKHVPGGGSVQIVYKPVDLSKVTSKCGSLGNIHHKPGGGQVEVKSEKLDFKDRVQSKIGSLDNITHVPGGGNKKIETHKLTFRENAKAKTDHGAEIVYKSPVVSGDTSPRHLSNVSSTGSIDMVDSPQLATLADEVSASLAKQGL
Test: qHTS for Inhibitors of Tau Fibril Formation, Thioflavin T Binding; further: nearly all actives have a fitted effect of over 55% in size
Conditions: recombinant tau K18 P301L, heparin-induced fibrillization, ThT fluorescence; series mostly up to 57.4 µM; activity, negative = inhibition: at the top concentration
Outline: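 ThT emission at 510 nm, taken 1 hr after adding 30 uM dye, quantifies aggregates formed when 20 uM heparin acts on human tau K18 P301L for 6 hr at 37 C.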
On the % scale 0 is the no-effect control and ±100 the full control effect; potency means the concentration at half of the fitted maximal effect; tags describe the fitted curve by direction and shape.

| Structure (SMILES) | Potency | activity, negative = inhibition |
| --- | --- | --- |
| O=[N+]([O-])c1nn(-c2ccc3c(c2)OCCO3)n(O)c1=NCCC1=CCCCC1 | inconclusive: 15.8 µM [inhibitor, partial curve] |  |
| C/C(=N\NC(=O)Nc1ccccc1)c1ccc2ccccc2c1 | inconclusive: 3.98 µM [inhibitor, full curve] |  |
| O=C1N/C(=C\c2ccc(O)cc2)C(O)=C1C=NCc1ccccc1 | inconclusive: 10 µM [inhibitor, partial curve] |  |
| COc1ccc(OC2C=CC(C#Cc3ccccc3)OC2CO)cc1 (stereo not given) | inconclusive: 5.01 µM [inhibitor, partial curve] |  |
| N=c1ccn2c(n1)OCC1C2O[C@@H](O)[C@H]1O (stereo not given in full) |  | inactive: -10.5% |
| C/C(=N\NC(=O)c1nc2ccccn2c1C)c1cc2ccccc2o1 | inconclusive: 7.08 µM [inhibitor, partial curve] |  |
| Cc1ccccc1-c1ccnc2[nH]n(-c3ccccc3)c(=O)c12 | inconclusive: 12.6 µM [inhibitor, partial curve, poor fit] |  |
| O=C(NCCCNc1ccc(C(F)(F)F)cc1[N+](=O)[O-])c1cc(F)c(F)cc1Cl | inconclusive: 14.1 µM [inhibitor, partial curve] |  |
| CCc1cc(-c2n[nH]c(C)c2-c2ccc3c(c2)OCCO3)c(O)cc1O | inconclusive: 12.6 µM [inhibitor, partial curve] |  |
| Clc1ccc(C2=Nc3cc(Cl)ccc3OC2)cc1 | inconclusive: 7.08 µM [inhibitor, partial curve] |  |
| O=C(CSc1nnc(CNC(=O)c2ccccc2F)o1)c1ccccc1 |  | inactive: -6.72% |
| O=C(c1ccco1)N1CCN(C(=O)c2[nH]ncc2[N+](=O)[O-])CC1 |  | inactive: 9.67% |
| CCOc1cc(C2C(C(=O)OC)=C(C)NC3=C2C(=O)c2ccccc23)ccc1OC (stereo not given) | inconclusive: 2.82 µM [inhibitor, single point] |  |
| Cc1ccc(S(=O)(=O)c2cnc(SCC(=O)Nc3ccc4c(c3)OCCO4)[nH]c2=O)cc1Cl | inconclusive: 28.2 µM [inhibitor, single point] |  |
| CCOc1ccc(NC(=O)c2sc3nc4c(c(-c5ccccc5)c3c2N)C(=O)CC(C)(C)C4)cc1 | inconclusive: 7.08 µM [inhibitor, partial curve, poor fit] |  |
| CN1C=CC2=C(C#N)C(N)C(C#N)(C#N)C(c3ccccc3)C2C1 (stereo not given) | inconclusive: 25.1 µM [inhibitor, partial curve] |  |
| CCCCC(=O)Nc1ccc(C(=O)NNC(=S)NC(=O)c2ccco2)cc1 | inconclusive: 7.08 µM [inhibitor, partial curve] |  |
| COc1ccc(NC(=S)N2CCN(c3ccc([N+](=O)[O-])cc3)CC2)cc1OC |  | inactive: 1.57% |
| CC(=O)NC(=S)Nc1ccc(NC(=O)COc2ccc(C(C)C)cc2)cc1 | inconclusive: 2.82 µM [inhibitor, full curve] |  |
| CN(C)CCNC(=O)C1CCN(c2ncnc3c2nc2n3CCCCC2)CC1 |  | inactive: 9.18% |
| Brc1ccc(C2CC(c3ccccc3)=Nc3ccccc3N2)cc1 (stereo not given) | inconclusive: 15.8 µM [inhibitor, single point] |  |
| CC(C)c1ccc(NC(=O)CSC2=Nc3ccccc3C3=NC(CC(=O)NCc4cccs4)C(=O)N23)cc1 (stereo not given) |  | inactive: -6.18% |
| Cc1cccc(OCC(=O)O/N=C(\N)c2ccc(Cl)cc2)c1 | inconclusive: 15.8 µM [inhibitor, partial curve] |  |
| CCc1ccc(OCCCOc2ccc(C=O)cc2)cc1 | inconclusive: 7.08 µM [inhibitor, partial curve] |  |

| Structure (SMILES) | Potency | activity, negative = inhibition |
| --- | --- | --- |
| COc1cccc(C(=O)Nc2nc3ccc(S(=O)(=O)N4CCCC4)cc3s2)c1 | inconclusive: 31.6 µM [activator, partial curve] |  |
| Nc1nnc(Cc2cccc(Br)c2)s1 |  | inactive: -1.17% |
| COc1ccc(/C=N/NC(=O)c2[nH]ncc2Br)c(OC)c1 | inconclusive: 10 µM [inhibitor, partial curve] |  |
| CC(C)[C@H](NC(=O)OC(C)(C)C)[C@@H](O)CC(=O)C(C)(C)C |  | inactive: -3.36% [at 11.5 µM] |
| CN1CCC(=C2c3ccccc3CCc3sccc32)CC1 | inconclusive: 17.8 µM [inhibitor, single point] |  |
| CCSc1nnc(NC(=O)CSc2nc3c(cc2C#N)CCCC3)s1 | active: 2.82 µM |  |
| CN1CCCc2cc3c(C(F)(F)F)cc(=O)oc3nc21 | inconclusive: 14.1 µM [activator, partial curve] |  |
| COC(=O)c1ccc(C(NC(=O)OCc2ccccc2)/C(=C/[C@@H](C)C(=O)NCc2nc3ccccc3n2C)c2cccnc2)cc1 (stereo not given in full) | inconclusive: 39.8 µM [inhibitor, single point] |  |
| Nc1ccc(Oc2ccc3nc(-c4ccccc4)c(-c4ccc([N+](=O)[O-])cc4)nc3c2)cc1 | inconclusive: 2.82 µM [inhibitor, partial curve, poor fit] |  |
| CCn1c(C)nc2cc(C(=O)N/N=C/c3ccccc3)ccc21 |  | inactive: -10.2% |
| Cc1ccc(SCC(=O)Nc2ccc(N3CCOCC3)cc2)cc1 | inconclusive: 39.8 µM [inhibitor, single point] |  |
| Cc1ccc(OCC(=O)Nc2nonc2-c2ccc(C)c(C)c2)cc1C |  | inactive: 8.51% |
| CCOC(=O)c1c(N)sc2c1CCC(CC)C2 (stereo not given) | inconclusive: 1.78 µM [inhibitor, partial curve] |  |
| COc1cccc(N2CCN(C(=O)c3cc4c(s3)-c3c(C)cccc3OC4)CC2)c1 | inconclusive: 5.01 µM [inhibitor, partial curve] |  |
| Cc1ccc(C(=O)NNC(=S)Nc2cccc3ccccc23)s1 | active: 12.6 µM |  |
| Cc1ccc(NC(=O)CSc2nnc(-c3nnn(-c4ccc(F)cc4)c3C)o2)cc1Br | inconclusive: 6.31 µM [inhibitor, partial curve] |  |
| Cc1ccc(-n2c(Cc3cccn3C)nnc2SCC(=O)N2CCN(c3ccccc3)CC2)cc1 | inconclusive: 22.4 µM [inhibitor, partial curve] |  |
| O=C(Nc1nnc(C2CC2)s1)c1ccco1 |  | inactive: 2.86% |
| CCc1ccc(C(=O)COC(=O)C(Cc2c[nH]c3ccccc23)NC(=O)c2ccc(CC)cc2)cc1 (stereo not given) | inconclusive: 44.7 µM [inhibitor, single point] |  |
| S=c1[nH]nc(Nc2ccccc2)s1 | inconclusive: 28.2 µM [inhibitor, single point] |  |
| CCOC(=O)c1c(Nc2ccc(O)cc2)nnc(-c2ccccc2)c1-c1ccccc1 |  | inactive: -6.31% |
| O=C(/C=C/c1cccs1)N1CCc2ccccc21 | inconclusive: 7.94 µM [inhibitor, full curve] |  |
| CCN(CC(=O)NC(C)C)C(=O)C(CCSC)NC(=O)c1cccc(C)c1 (stereo not given) |  | inactive: -5.99% |
| CC12CCC(C(=O)N(CSC(=S)N/N=C\c3ccccc3)C1=O)C2(C)C (stereo not given) | inconclusive: 12.6 µM [inhibitor, partial curve] |  |

| Structure (SMILES) | Potency | activity, negative = inhibition |
| --- | --- | --- |
| COc1ccc(NCCNc2ccc(OC)cc2)cc1 | inconclusive: 3.55 µM [inhibitor, full curve] |  |
| O=C(c1cnc2n(c1=O)CCS2)N1CCN(C(c2ccccc2)c2ccc(Cl)cc2)CC1 (stereo not given) | inconclusive: 28.2 µM [inhibitor, single point] |  |
| N#C/C(=C\c1ccc(-c2ccccc2)cc1)c1nc(-c2ccco2)cs1 | inconclusive: 5.62 µM [inhibitor, partial curve] |  |
| O=C(Cn1cnc2cc([N+](=O)[O-])ccc2c1=O)Nc1ccccc1-c1ccccc1 | inconclusive: 35.5 µM [inhibitor, single point] |  |
| Clc1cc2nc3ccccn3c2cc1Cl | inconclusive: 14.1 µM [inhibitor, partial curve] |  |
| CC(C)Cc1nn2c(=O)cc(COC(=O)CNC(=O)c3ccc(C(C)(C)C)cc3)nc2s1 | inconclusive: 20 µM [inhibitor, partial curve] |  |
| CC1CCCN(CCCNC(=O)c2ccc3c(c2)N(Cc2cccc(Cl)c2)C(=O)c2ccccc2S3(=O)=O)C1 (stereo not given) |  | inactive: -5.23% |
| COc1ccc(C(=O)NNC(=S)NC(=O)c2ccccc2[N+](=O)[O-])cc1 | inconclusive: 39.8 µM [inhibitor, single point] |  |
| O=[N+]([O-])c1cccc(-c2csc(Nc3ccccc3)n2)c1 | inconclusive: 12.6 µM [inhibitor, partial curve] |  |
| CC1CCC(C(C)C)[C@H](O)C1 (stereo not given in full) |  | inactive: 1.41% |
| CCOC(=O)c1sc(NC(=O)CCCCl)nc1C |  | inactive: -7.89% |
| COc1ccc(NC2=C(C(C)=O)C(c3ccc(OC)cc3)C(C(C)=O)C(C)(O)C2)cc1 (stereo not given) |  | inactive: 3.89% |
| CCC(C)(C)C1CCC(=NNc2nc3ccccc3[nH]2)CC1 (stereo not given) | active: 15.8 µM |  |
| COc1cc(/C=C/c2nc3ccccc3s2)cc(OC)c1O | inconclusive: 14.1 µM [inhibitor, partial curve] |  |
| O=C(Cc1cccs1)N/N=C/C=C/c1ccccc1 |  | inactive: -3.63% |
| O=C(CCCc1nc2ccccc2s1)Nc1ccc(N2CCOCC2)cc1 | inconclusive: 6.31 µM [inhibitor, partial curve] |  |
| COc1ccccc1NC(=O)CN1C(=O)CCS(=O)(=O)c2ccccc21 |  | inactive: -11.2% |
| CC(=O)/C=C1\N(C)c2ccc(C)cc2C1(C)C | inconclusive: 10 µM [inhibitor, partial curve] |  |
| NC(=O)c1ccccc1NC(=O)CCCN1C(=O)CCC1=O |  | inactive: -4.37% |
| Cc1ccc(C)c(NC(=O)CN2CCN(C3CCCCC3)C(=O)C2=O)c1 |  | inactive: 1.02% |
| O=C(Cn1nnc2ccccc2c1=O)N1CCCc2ccccc21 |  | inactive: 6.25% |
| C/C(CCN1CCc2nc(-c3ccccc3)c(-c3ccccc3)cc2C1)=N\OC[C@@H](O)[C@@H]1O[C@@H]2OC(C)(C)O[C@@H]2[C@H]1O | inconclusive: 0.0891 µM [inhibitor, partial curve, poor fit] |  |
